About 14,000 (4.5%) of roughly 310,000 compounds showed an effect of 50% or more. The effect is printed as a negative number. Some of the results follow.
molecular target: human ether-à-go-go-related gene (hERG) potassium channel (human, UniProt Q12809); experiment: primary screen, population patch clamp on CHO cells stably expressing hERG
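Also: peak tail current of the secondary pulse compared with the same well before compound.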

Chain of human ether-à-go-go-related gene (hERG) potassium channel (Q12809 whole entry, looked up): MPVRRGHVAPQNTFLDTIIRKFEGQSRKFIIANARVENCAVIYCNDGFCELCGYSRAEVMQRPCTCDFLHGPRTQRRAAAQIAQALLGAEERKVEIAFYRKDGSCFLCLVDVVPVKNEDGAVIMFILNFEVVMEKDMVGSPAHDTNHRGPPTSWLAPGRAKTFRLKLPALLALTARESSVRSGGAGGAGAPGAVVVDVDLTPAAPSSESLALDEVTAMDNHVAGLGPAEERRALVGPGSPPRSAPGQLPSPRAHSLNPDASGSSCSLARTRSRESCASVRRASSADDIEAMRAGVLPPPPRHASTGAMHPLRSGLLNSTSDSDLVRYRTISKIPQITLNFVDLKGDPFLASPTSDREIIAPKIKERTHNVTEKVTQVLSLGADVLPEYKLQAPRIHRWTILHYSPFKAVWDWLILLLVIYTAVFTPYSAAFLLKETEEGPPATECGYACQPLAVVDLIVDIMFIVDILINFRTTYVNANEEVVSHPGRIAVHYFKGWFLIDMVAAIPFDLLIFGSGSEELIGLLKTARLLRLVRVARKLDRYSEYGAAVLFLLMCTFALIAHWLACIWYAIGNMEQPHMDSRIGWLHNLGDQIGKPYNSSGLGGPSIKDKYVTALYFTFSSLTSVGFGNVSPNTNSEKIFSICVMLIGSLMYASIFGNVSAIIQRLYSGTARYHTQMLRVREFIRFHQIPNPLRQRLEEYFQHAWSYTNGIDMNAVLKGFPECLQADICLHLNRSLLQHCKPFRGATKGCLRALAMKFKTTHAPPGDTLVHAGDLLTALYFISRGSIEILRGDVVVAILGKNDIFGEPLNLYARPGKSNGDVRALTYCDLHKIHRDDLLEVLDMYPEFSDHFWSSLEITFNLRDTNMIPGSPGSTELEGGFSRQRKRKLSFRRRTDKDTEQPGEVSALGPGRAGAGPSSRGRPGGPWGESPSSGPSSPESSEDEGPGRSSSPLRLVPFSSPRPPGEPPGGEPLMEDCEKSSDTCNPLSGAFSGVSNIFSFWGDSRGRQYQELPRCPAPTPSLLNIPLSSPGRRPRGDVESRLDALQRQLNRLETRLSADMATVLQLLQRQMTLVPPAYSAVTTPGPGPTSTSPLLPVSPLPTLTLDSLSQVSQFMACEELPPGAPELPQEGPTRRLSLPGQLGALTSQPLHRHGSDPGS

| Structure (SMILES) | hERG current change (%, negative = inhibition) at 10uM [%] |
| --- | --- |
| Cc1c(/C=N\NC(=O)c2ccc([N+](=O)[O-])cc2)cnn1C | -7.03 |
| CCn1c(SCC(=O)N=Nc2c(O)[nH]c3ccccc23)nnc1-c1ccc(C(C)(C)C)cc1 | -5.11 |
| O=C(OCC(=O)N(C1CCCCC1)C1CCCCC1)c1ccc(Cl)nc1 | 4.45 |
| CCN(CC)C1=CC(=[N+]2CCCC2)CC(C)(C)C1.[I-] | -4.08 |
| CCn1c(SCC(=O)N/N=C/c2cc(OC)c(O)c(OC)c2)nc2ccccc21 | -19.2 |
| CC(=O)N1c2ccc(S(=O)(=O)N3CCCCC3)cc2CC1C(=O)Nc1ccc(F)cc1C (stereo not drawn) | -13.3 |
| Cc1ccccc1-n1cnnc1SCC(=O)N1CCN(c2ccccc2)CC1 | -57.7 |
| CCOC(=O)C1=C(C)NC2=C(C(=O)CCC2)C1c1cc(OC)ccc1OC (stereo not drawn) | -6.22 |
| COc1ccc(N2CCN(CC(=O)Nc3ccc(C)cc3)CC2)cc1 | -18.7 |
| c1cnc(N2CCN(Cc3ccc4c(c3)OCO4)CC2)cn1 | -21.7 |
| Cc1ccc(S(=O)(=O)NC(C(=O)OCC(=O)NC2CCS(=O)(=O)C2)C(C)C)cc1 (stereo not drawn) | 9.01 |
| Cc1ccccc1OCC(=O)NNC(=O)c1cc(S(=O)(=O)N2CCOCC2)ccc1N1CCCC1 | 3.34 |
| OCCCn1c(C2CCCN2c2nc(-c3ccc(Cl)cc3)cs2)nc2cc(Cl)c(N3CCCCC3)cc21 (stereo not drawn) | 3.24 |
| Nc1c(C2=NCCO2)nnn1Cc1ccccc1 | 17.6 |
| COc1cc(/C=C(/NC(=O)c2ccccc2)C(=O)Nc2cccc(O)c2)c([N+](=O)[O-])cc1OC | 0.394 |
| CCCOC(=O)Nc1nc(-c2ccc(C)cc2)c(C)s1 | 17.2 |
| C#CCCOC(=O)N1C2=NC(C(=O)OC)=C(C(=O)OC)[C@@H]3N(CC=C)c4ccccc4[C@]23C[C@H]1C(=O)OC | -9.66 |
| CCOC(=O)c1ccc(N2CCCCC2)c(NS(=O)(=O)c2ccc(C)cc2)c1 | 9.39 |
| COc1cc(C2Nc3cc(Cl)c(S(N)(=O)=O)cc3S(=O)(=O)N2)ccc1OCc1ccccc1 (stereo not drawn) | -1.49 |
| CNC(=O)COc1coc(CN2CCN(c3ccccc3F)CC2)cc1=O | 3.7 |
| CCCc1ccc2oc(C(=O)N3CCC(COC)C3)c(C)c2c1 (stereo not drawn) | -38.4 |
| CC1CC(C)(C)NC(=S)N1CCC(=O)N1CCN(c2ccccc2)CC1 (stereo not drawn) | 0.18 |
| COc1ccc(NC(=O)CS(=O)(=O)Cc2ccccc2)c([N+](=O)[O-])c1 | -14.8 |
| O=C(Nc1cccc(NC(=O)c2cncc(Br)c2)c1)c1cncc(Br)c1 | 8.56 |
| COc1ccccc1-n1c(CNC(=O)c2ccc(S(=O)(=O)N3CCCCC3)cc2)n[nH]c1=S | 20.2 |
| CN1CCN(CC(=O)NN2CC(=O)N(c3ccc(F)cc3)CC2=O)CC1 | 4.34 |
| O=[N+]([O-])c1ccccc1S(=O)(=O)Nc1ccc(-c2ccc(N3CCCC3)nn2)cc1 | -13.5 |

| Structure (SMILES) | hERG current change (%, negative = inhibition) at 10uM [%] |
| --- | --- |
| CCOC(=O)c1c(-c2ccc(Cl)cc2)c(C#N)c(=O)n(N)c1N | 7.15 |
| COc1ccc(C2CC(c3ccccc3)=NN2S(=O)(=O)c2ccccc2)cc1 (stereo not drawn) | 14.8 |
| C/C(N)=C(/C#N)C(=O)CSc1nnc(C)n1-c1ccccc1 | 39.9 |
| COc1ccc2cc(C3(C)NC(=O)N(CC(=O)NCC(F)(F)F)C3=O)ccc2c1 (stereo not drawn) | 6.12 |
| COc1ccc(NS(=O)(=O)c2ccc(-c3ccccn3)s2)cc1 | -4.6 |
| Cc1ccc(CSc2nnc(Cn3c(=O)sc4ccccc43)n2C)cc1 | -8.26 |
| Cc1[nH]c(C)c(S(=O)(=O)N2CCC(C)CC2)c1C(=O)N1CCCC1 | -11 |
| Cn1c(CC(=O)NCCO)c(Sc2ccccc2)c2ccccc21 | -25.4 |
| C/C=C/C(=O)OCC(=O)Nc1cc(-c2cc(C)c(C)cc2C)nn1-c1ccccc1 | 2.24 |
| CC1CC(C)CN(S(=O)(=O)N2CCCC(C(=O)NC3CCCCC3C)C2)C1 (stereo not drawn) | 12.7 |
| Cc1cccc(NC(=S)NCCc2ccc(F)cc2)c1C | 14.5 |
| O=C(CCc1ccccc1)Nc1ccc(Cl)cn1 | -13.7 |
| COc1ccc(N/C=C/C(=O)c2ccc3c(c2)OCO3)cc1OC | -9.42 |
| CCOC(=O)CSc1nnc(CSc2nc3sc4c(c3c(=O)[nH]2)CCC4)n1C | -2.93 |
| Cc1nnc(-c2ccc(Oc3ccc(C)c(C)c3)c([N+](=O)[O-])c2)o1 | -14.7 |
| CCn1cc(C(=O)NCCc2ccccc2)c(=O)c2cc(S(=O)(=O)N3CCCC3)ccc21 | 1.7 |
| COc1cc(-c2noc(CCCC(=O)Nc3ccc(C(N)=O)cc3)n2)cc(OC)c1OC | 15.6 |
| Cc1nn(-c2ccccc2)c(C)c1C(=O)OCC(=O)Nc1ccc2c(c1)OCO2 | -26.5 |
| O=C(CCNS(=O)(=O)c1ccc(OC(F)(F)F)cc1)NCCc1c[nH]c2ccccc12 | 9.12 |
| O=C(CCc1c[nH]c2ccccc12)Nc1ncccc1O | 12 |
| CC(=O)N(C)c1ccc(N=Nc2c(C)[nH]n(-c3ccccc3)c2=O)cc1 | 8.49 |
| CC(=O)Nc1ccc(SC(C)C(=O)NC2CCCC2)cc1 (stereo not drawn) | 5.15 |
| CCN(CC)S(=O)(=O)c1ccc2oc(SCC(=O)NC3CC3)nc2c1 | -8.91 |
| COc1ccc(-c2csc(NC(=O)COC(=O)C3=COCCO3)n2)cc1 | 21.4 |
| Nc1ccc(NC(=S)Nc2ccccc2)cc1 | 14.9 |
| COc1ccc(Cc2nc(-c3ccc(Br)cc3)no2)cc1 | -4.05 |
| COc1cccc(CNC(=O)CC(NC(=O)c2ccccc2)c2ccccc2)c1 (stereo not drawn) | -16.6 |

Reference: article PMC4336329 (PLoS ONE, 2015)
